Experimental data taken from the BET-seq Pho4 binding data (Le et al. 2018).
The other results are listed elsewhere or left out. These are noisy estimates, calculated here from bound and input reads.

Target: T1, Pho4 (S. cerevisiae) (UniProt P07270)
T1 sequence: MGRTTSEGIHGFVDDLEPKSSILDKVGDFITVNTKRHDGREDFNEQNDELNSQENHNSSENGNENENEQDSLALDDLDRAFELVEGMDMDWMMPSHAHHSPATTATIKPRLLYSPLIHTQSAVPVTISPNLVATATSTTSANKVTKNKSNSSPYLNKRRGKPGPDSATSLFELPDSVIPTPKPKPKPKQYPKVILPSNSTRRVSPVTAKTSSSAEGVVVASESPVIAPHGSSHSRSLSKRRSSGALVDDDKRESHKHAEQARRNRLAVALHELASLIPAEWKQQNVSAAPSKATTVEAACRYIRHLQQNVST
Assay: relative binding free energy (BET-seq); higher = weaker binding
Conditions: reference: library average

Sequence | relative binding free energy [kcal/mol]
TCTTACACGTGATAGT | 0.32
AGGATCACGTGTTTAG | 0.1
GGCGTCACGTGTGAGC | 0.24
TGTCTCACGTGAGTGT | 0.22
GTAGACACGTGTGGTG | 0.04
TATTTCACGTGAGTCG | 0.41
GGGCACACGTGGCTGT | 0
GGGGACACGTGAATAG | 0.42
TAATGCACGTGATGGT | 0
GTTTTCACGTGGGGTA | 0.18
AATATCACGTGGGGAA | -0.1
AAGGGCACGTGCAGGG | -0.19
TAAAGCACGTGAGTGT | 0.14
TTGACCACGTGTGGGA | 0
GAGATCACGTGTTAAT | 0.25
GAAGCCACGTGGGTTA | -0.1
TATCACACGTGTTTTG | -0.02
TAGAACACGTGTGGAG | 0.06
TATCGCACGTGGGTGC | -0.25
AGGGTCACGTGGTATT | 0.12
TGTATCACGTGGGTAC | 0.11
AGAGGCACGTGTGGGT | 0.07
GGGGTCACGTGGGCGT | 0.03

Sequence | relative binding free energy [kcal/mol]
AGTAACACGTGTTGAT | -0.08
CGCGTCACGTGGGGGT | -0.08
GTAAACACGTGAGGGT | 0.3
GTACGCACGTGAAGGG | 0.22
ATTAACACGTGTGAGG | 0.03
TGCAGCACGTGAGGAT | 0.13
AGTGACACGTGGTTTG | -0.03
GCGTACACGTGATAGG | 0.38
TATGGCACGTGGGGGC | -0.26
AGATGCACGTGTTATT | 0.01
TAGTGCACGTGCTGGA | -0.24
GTGGTCACGTGTTCCT | 0.19
TGTACCACGTGCATGG | 0
TCGTGCACGTGAGGGG | 0.15
GCGGGCACGTGAAGGA | 0.27
CGTTACACGTGTTATT | 0.17
CAGTTCACGTGTGAGG | 0.31
AGGTTCACGTGCTGAT | 0.15
GGTAGCACGTGGCTTT | -0.13
CTGCGCACGTGTTGTT | -0.09
AGGGGCACGTGGCAGG | -0.26
CTGTACACGTGTGAAG | 0.16
GGGTTCACGTGTAATT | 0.41

Sequence | relative binding free energy [kcal/mol]
TCGGGCACGTGGTTCG | -0.05
TGAGACACGTGGCGTG | -0.16
TGGAACACGTGAGGCA | 0.23
AGAAACACGTGTTTGG | -0.07
TTGGGCACGTGGGATA | -0.19
ATATGCACGTGTGTTA | -0.18
CGTGTCACGTGTAAAG | 0.3
ATTTGCACGTGAAGCT | 0.24
GTGTGCACGTGGAGGT | 0.04
CAAGTCACGTGATGTT | 0.18
GTATACACGTGGTCTT | 0.07
TGGGACACGTGTAGGC | 0.06
AAGGGCACGTGTCTGT | -0.07
GTATGCACGTGCTAGT | -0.08
TTAAGCACGTGACTGT | -0.04
TGGTACACGTGTAGCT | 0.02
GGGAACACGTGATGTT | 0.23
TATAACACGTGTGTTG | -0.06
TTGTTCACGTGCGAAT | 0.4
GTTTACACGTGTCGAG | 0.12
ACTGTCACGTGGGATG | -0.01
GGTCCCACGTGGTTTT | 0.06
TTGTGCACGTGGTCCT | -0.27

Sequence | relative binding free energy [kcal/mol]
TCTTCCACGTGGGTGT | 0.05
AGTGCCACGTGTTTTG | -0.09
GAGTGCACGTGTAATA | 0.2
AATGACACGTGCGGGT | 0.02
ATGGTCACGTGTATGC | 0.04
CGGCGCACGTGTTAGG | -0.09
TTGTACACGTGGTGAG | 0.07
GAGAACACGTGAGGGA | 0.34
ACTGTCACGTGTGGTA | 0.09
AGAAGCACGTGGAGGG | -0.06
AGTTTCACGTGCGTAA | 0.17
ACTGGCACGTGTTTTG | 0
TAGAGCACGTGATTGT | 0.03
TGTGACACGTGGAAGA | 0.07
GTAGCCACGTGGGTGC | -0.14
GGGATCACGTGAGGCT | 0.34
TTGTACACGTGCTGGC | 0.11
GAGGGCACGTGGGGGG | -0.14
GATGACACGTGCGGGT | 0.06
CTGGTCACGTGTGGCG | 0.09
GTTTACACGTGTCGGA | 0.19
TTGGACACGTGTTCTG | 0.04
GTGTTCACGTGTCAGA | 0.3

Sequence | relative binding free energy [kcal/mol]
GGGTGCACGTGAGGAG | 0.3
AATTTCACGTGCAGAT | 0.29
TTAGTCACGTGTTGTC | 0.16
GATTGCACGTGGGATG | 0.02
TGGATCACGTGGTTAC | 0.13
TATGGCACGTGGTCCG | -0.18
GAGTTCACGTGATTTG | 0.5
GGAGCCACGTGGTTGG | -0.06
CGGTTCACGTGATTGG | 0.39
TAGGTCACGTGATTTG | 0.32
TGGGGCACGTGTGGTG | -0.07
TACGGCACGTGCGTAG | -0.01
GTGTTCACGTGAATAA | 0.3
TGAGTCACGTGAGTGT | 0.27
TTGGACACGTGTCTAG | 0.04
AGTGCCACGTGGTAAT | -0.08
GTATCCACGTGGGTGG | -0.12
TTGAACACGTGAAGGC | 0.55
CTTATCACGTGATTTT | 0.24
ATTGTCACGTGCGGTC | 0.06
GGTCTCACGTGGGGGT | 0.11
ACTCTCACGTGGGGGG | 0
CGGAACACGTGAGTGG | 0.07
